Laboratory results from paper PMC4216074.
Results are given in words; binding and its absence hold for the method and conditions named. In cells and extracts the contact can be indirect. Where a sequence is shown, tags or fusion partners need not be part of it.

Sequences of proteins named here, by UniProt entry; tags and fusion partners are left off.
UniProt P46937: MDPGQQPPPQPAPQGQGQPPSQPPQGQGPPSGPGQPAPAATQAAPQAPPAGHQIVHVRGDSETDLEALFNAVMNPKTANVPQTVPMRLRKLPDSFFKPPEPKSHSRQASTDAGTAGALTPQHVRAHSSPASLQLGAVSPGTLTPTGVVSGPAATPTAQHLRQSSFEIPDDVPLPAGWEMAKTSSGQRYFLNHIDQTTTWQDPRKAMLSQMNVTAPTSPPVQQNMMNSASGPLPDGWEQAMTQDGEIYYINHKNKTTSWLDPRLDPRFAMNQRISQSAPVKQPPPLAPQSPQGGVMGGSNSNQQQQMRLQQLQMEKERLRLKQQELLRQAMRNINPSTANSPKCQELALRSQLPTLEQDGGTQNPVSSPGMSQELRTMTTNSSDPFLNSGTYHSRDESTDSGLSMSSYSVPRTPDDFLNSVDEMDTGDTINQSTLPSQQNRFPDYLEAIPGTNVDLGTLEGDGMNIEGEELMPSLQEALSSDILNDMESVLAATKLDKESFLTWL

B1: ASPP1-V5, Q96KQ4 1-1090 (protein)
chain: MMPMILTVFLSNNEQILTEVPITPETTCRDVVEFCKEPGEGSCHLAEVWRGNERPIPFDHMMYEHLQKWGPRREEVKFFLRHEDSPTENSEQGGRQTQEQRTQRNVINVPGEKRTENGVGNPRVELTLSELQDMAARQQQQIENQQQMLVAKEQRLHFLKQQERRQQQSISENEKLQKLKERVEAQENKLKKIRAMRGQVDYSKIMNGNLSAEIERFSAMFQEKKQEVQTAILRVDQLSQQLEDLKKGKLNGFQSYNGKLTGPAAVELKRLYQELQIRNQLNQEQNSKLQQQKELLNKRNMEVAMMDKRISELRERLYGKKIQLNRVNGTSSPQSPLSTSGRVAAVGPYIQVPSAGSFPVLGDPIKPQSLSIASNAAHGRSKSANDGNWPTLKQNSSSSVKPVQVAGADWKDPSVEGSVKQGTVSSQPVPFSALGPTEKPGIEIGKVPPPIPGVGKQLPPSYGTYPSPTPLGPGSTSSLERRKEGSLPRPSAGLPSRQRPTLLPATGSTPQPGSSQQIQQRISVPPSPTYPPAGPPAFPAGDSKPELPLTVAIRPFLADKGSRPQSPRKGPQTVNSSSIYSMYLQQATPPKNYQPAAHSALNKSVKAVYGKPVLPSGSTSPSPLPFLHGSLSTGTPQPQPPSESTEKEPEQDGPAAPADGSTVESLPRPLSPTKLTPIVHSPLRYQSDADLEALRRKLANAPRPLKKRSSITEPEGPGGPNIQKLLYQRFNTLAGGMEGTPFYQPSPSQDFMGTLADVDNGNTNANGNLEELPPAQPTAPLPAEPAPSSDANDNELPSPEPEELICPQTTHQTAEPAEDNNNNVATVPTTEQIPSPVAEAPSPGEEQVPPAPLPPASHPPATSTNKRTNLKKPNSERTGHGLRVRFNPLALLLDASLEGEFDLVQRIIYEVEDPSKPNDEGITPLHNAVCAGHHHIVKFLLDFGVNVNAADSDGWTPLHCAASCNSVHLCKQLVESGAAIFASTISDIETAADKCEEMEEGYIQCSQFLYGVQEKLGVMNKGVAYALWDYEAQNSDELSFHEGDALTILRRKDESETEWWWARLGDREGYVPKNLLGLYPRIKPRQRTLA
B2: iASPP-V5 (protein, UniProt Q8WUF5 1-828)
chain: MDSEAFQSARDFLDMNFQSLAMKHMDLKQMELDTAAAKVDELTKQLESLWSDSPAPPGPQAGPPSRPPRYSSSSIPEPFGSRGSPRKAATDGADTPFGRSESAPTLHPYSPLSPKGRPSSPRTPLYLQPDAYGSLDRATSPRPRAFDGAGSSLGRAPSPRPGPGPLRQQGPPTPFDFLGRAGSPRGSPLAEGPQAFFPERGPSPRPPATAYDAPASAFGSSLLGSGGSAFAPPLRAQDDLTLRRRPPKAWNESDLDVAYEKKPSQTASYERLDVFARPASPSLQLLPWRESSLDGLGGTGKDNLTSATLPRNYKVSPLASDRRSDAGSYRRSLGSAGPSGTLPRSWQPVSRIPMPPSSPQPRGAPRQRPIPLSMIFKLQNAFWEHGASRAMLPGSPLFTRAPPPKLQPQPQPQPQPQSQPQPQLPPQPQTQPQTPTPAPQHPQQTWPPVNEGPPKPPTELEPEPEIEGLLTPVLEAGDVDEGPVARPLSPTRLQPALPPEAQSVPELEEVARVLAEIPRPLKRRGSMEQAPAVALPPTHKKQYQQIISRLFHRHGGPGPGGPEPELSPITEGSEARAGPPAPAPPAPIPPPAPSQSSPPEQPQSMEMRSVLRKAGSPRKARRARLNPLVLLLDAALTGELEVVQQAVKEMNDPSQPNEEGITALHNAICGANYSIVDFLITAGANVNSPDSHGWTPLHCAASCNDTVICMALVQHGAAIFATTLSDGATAFEKCDPYREGYADCATYLADVEQSMGLMNSGAVYALWDYSAEFGDELSFREGESVTVLRRDGPEETDWWWAALHGQEGYVPRNYFGLFPRVKPQRSKV

Legend:
hYAP-myc (human), P46937 = test: co-IP; HEK293 cells co-transfected with YAP and V5-tagged ASPP constructs; exogenous YAP immunoprecipitated with anti-myc 9E10; immunoblot; conditions: remark: other sources report otherwise
hYAP-myc (human) = hYAP-myc (human) (UniProt P46937); test: as above

Binder	binding (hYAP-myc (human), P46937)	binding (hYAP-myc (human))
B1	no binding	
B2		no binding
